Experimental data published in PubChem BioAssay AID485281 (National Center for Advancing Translational Sciences (NCATS), 2010).
“And” between values parts separate entries of the source, which are not always exact repeats. Identical values can stand only once. Hit rate of the full screen: of about 350,000 compounds, about 260 (0.074%) were called active. The shares of active, inactive and inconclusive entries below differ from those in the screen. The call rests on the fitted dose curve; in most records, active means well fitted inhibition curve with a large enough effect; inconclusive means small, poorly fitted or top-dose-only effect; inactive means no such curve, though single readings can be large or run the other way. A potency beside an inconclusive call is a rough fit, not a confirmed value.

Target: Ferritin light chain (Equus caballus) (UniProt P02791)
Chain of UniProt P02791 (P02791 whole entry, looked up): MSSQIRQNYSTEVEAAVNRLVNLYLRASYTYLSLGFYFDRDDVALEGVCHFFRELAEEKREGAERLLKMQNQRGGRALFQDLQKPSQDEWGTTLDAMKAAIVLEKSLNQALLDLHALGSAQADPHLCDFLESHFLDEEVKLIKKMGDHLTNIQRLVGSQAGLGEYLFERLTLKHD
Test: qHTS Assay for Identification of Novel General Anesthetics; further: nearly all actives have a fitted effect of over 20% in size
Details: apoferritin/1-aminoanthracene competitive binding, fluorescence; activity change, negative = displacement: at 77.5 µM (top of the series)
Method in brief: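 Apoferritin-based anesthetic binding model; compound displacement of fluorescent 1-AMA measured as endpoint fluorescence after 10 minutes at room temperature, scaled to free-ligand and complex controls.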
On the % scale 0 is the no-effect control and ±100 the full control effect; potency means the concentration at half of the fitted maximal effect; tags describe the fitted curve by direction and shape.

Potency, inactive:
CN(C)CCCN1c2ccccc2CCc2ccc(Cl)cc21

Potency, inconclusive:
CCCC1CCc2c(sc(N)c2C(N)=O)C1 (centres undefined) 35.5 µM [inhibitor, single point]
O=C(CCN1CCc2ccccc21)c1ccc2c(c1)OCCO2 28.2 µM [inhibitor, partial curve]
COc1ccc2sc(NCc3ccccc3)nc2c1 15.8 µM [inhibitor, partial curve]
C(=N\n1cnnc1)/c1ccc(OCc2ccccc2)cc1 50.1 µM [inhibitor, single point]
Cn1c(=O)n(C)c2cc([N+](=O)[O-])c(N3CCN(C(=O)c4cccc(F)c4)CC3)cc21 17.8 µM [inhibitor, partial curve]
Cc1ccc(NC(=O)N2CCC(c3ccccc3)C2)cc1C (centres undefined) 25.1 µM [inhibitor, single point]
Cc1ccc(C(=O)N(CC(=O)NC2CCCCC2)c2ccccc2F)s1 14.1 µM [inhibitor, partial curve]
COc1cccc(OCC(O)CN2CCC(CN3C(=O)c4cccc5cccc(c45)C3=O)CC2)c1 (centres undefined) 15.8 µM [inhibitor, partial curve]
O=C1/C(=C/c2ccccc2Cl)SC(=S)N1CCC(=O)N1CCCCC1CCO (centres undefined) 31.6 µM [inhibitor, single point]
COc1ccccc1-c1n[nH]c2c1[C@H](C)CC[C@H]2C(C)C 17.8 µM [inhibitor, partial curve]
CCc1cc(=O)[nH]c(SCCc2ccccc2)n1 44.7 µM [inhibitor, single point]
COc1cc(/C=C2\C(=N)N3N=C(S(C)(=O)=O)SC3=NC2=O)cc(OC)c1OCCOc1ccccc1C 35.5 µM [inhibitor, partial curve]
COc1ccc(S(=O)(=O)NCCSC(C)(C)C)cc1 31.6 µM [inhibitor, partial curve]
O=C(NC1CCSc2ccccc21)c1ccccc1F (centres undefined) 25.1 µM [inhibitor, single point]
Cc1ccc(Cn2nnc3c(=O)[nH]c(C4CCN(S(=O)(=O)c5cc(C)ccc5C)CC4)nc32)cc1 7.94 µM [inhibitor, partial curve]
Fc1ccc(CSc2nnc(-c3cnccn3)n2Cc2ccco2)cc1 14.1 µM [inhibitor, partial curve]
CCC(C)(C)NC(=O)C(c1cccn1C)N(C(=O)Cn1nnc2ccccc21)c1ccc(OC)cc1OC (centres undefined) 35.5 µM [inhibitor, single point]
CN(C(=O)COC(=O)c1cc(NS(=O)(=O)c2cc([N+](=O)[O-])ccc2Cl)ccc1O)C1CCCCC1 17.8 µM [inhibitor, partial curve]
Nn1c(SCC(=O)Nc2ccc3c(c2)OCO3)nnc1-c1ccccc1 10 µM [inhibitor, partial curve]
COC(=O)C1=C(CN2CCc3ccccc32)NC(=O)NC1c1cc(C)ccc1C (centres undefined) 14.1 µM [inhibitor, partial curve]
NC(=O)[C@H]1CC2(CC(c3cccc(NC(=O)CC(c4ccccc4)c4ccccc4)c3)=NO2)CN1C(=O)c1ccccc1C(=O)c1ccccc1 (some centres undefined) 17.8 µM [inhibitor, partial curve]
Cn1cc(Br)c(C(=O)NNC(=O)c2cccc(Br)c2)n1 50.1 µM [inhibitor, single point]
O=C1CC(=C(c2ccccc2)c2ccccc2)C(=O)N1CCCN1CCN(c2cccc(Cl)c2)CC1 14.1 µM [inhibitor, partial curve]
CC1(C)Cc2c(cnn2-c2cccc(F)c2)C(NC(=O)c2csnn2)C1 (centres undefined) 35.5 µM [inhibitor, partial curve]
Cc1ccc(NC(=O)c2cc(S(=O)(=O)N3CCCCC3)ccc2N2CCOCC2)cc1F 3.16 µM [inhibitor, partial curve]
CCOc1ccc(NC(=O)CSc2nc(NS(=O)(=O)c3ccc(C)cc3)cc(=O)[nH]2)cc1 14.1 µM [inhibitor, partial curve]
Cc1cccn2c(=O)c(C=O)c(N3CCCCCC3)nc12 22.4 µM [inhibitor, partial curve]
CCCC(=O)Nc1ccc(Br)c(Cl)c1 15.8 µM [inhibitor, partial curve]
Cc1ccc(C(=O)COC(=O)CNC(=O)c2cccs2)cc1C 22.4 µM [inhibitor, partial curve]
Cc1cccc(N=C2NC(=O)/C(=C/c3cccn3C)S2)c1C 22.4 µM [inhibitor, partial curve]
CCOC(=O)C1CCN(C(=O)c2ccc3c(=O)n4nc(Nc5cc(C)ccc5C)sc4nc3c2)CC1 35.5 µM [inhibitor, single point] and 5.62 µM [inhibitor, full curve, poor fit]
Cc1ccccc1CN1C(=O)C(O)(CC(=O)c2ccncc2)c2ccccc21 (centres undefined) 15.8 µM [inhibitor, partial curve]
CC1CCCC(C)N1C(=O)CSc1nnc(COc2ccc(F)cc2)o1 (centres undefined) 35.5 µM [inhibitor, single point]
CCOC(=O)c1cccc(NC(=O)CSc2nnc(COc3ccccc3C)o2)c1 11.2 µM [inhibitor, partial curve]
C/C(Cc1ccccc1)=N\NC(=O)CNC(=O)c1cccc(Br)c1 50.1 µM [inhibitor, single point]
COc1ccc(-n2c(C)cc(C(=O)CSc3nnc(-c4ccoc4C)n3C)c2C)cc1 12.6 µM [inhibitor, partial curve]
COc1cccc(NC(=O)Cc2ccccc2)c1 39.8 µM [inhibitor, partial curve]
CCCCCCC(=O)N/N=C/Cc1ccccc1 25.1 µM [inhibitor, partial curve]
Cc1cc(C(=O)Nc2cccc(S(=O)(=O)N3CCCCC3)c2)c2ccccc2n1 35.5 µM [inhibitor, partial curve]
Cc1cccc(CC(=O)Nc2ccc(C(=O)N3CCCCC3)cc2)c1 17.8 µM [inhibitor, partial curve]
CS(=O)(=O)c1ccc(CNC(=O)C2(C(F)(F)F)C/C(=C\Cc3ccccc3)CCCO2)cc1 (centres undefined) 15.8 µM [inhibitor, partial curve]
CCCCCCSc1nsc(NC(=O)CC(C)C)n1 44.7 µM [inhibitor, single point]
Cc1ccc(C)c(-c2cc(C(=O)NCc3cccs3)c3ccccc3n2)c1 5.62 µM [inhibitor, partial curve]
Cc1cccc(OCC(=O)Nc2ccc3c(c2)OCO3)c1C 35.5 µM [inhibitor, partial curve]
CCc1ccc(C(=O)Cn2ncc(Cl)c(Cl)c2=O)cc1 8.91 µM [inhibitor, full curve]
Cc1noc(C)c1COc1ccc(C(=O)OCC(=O)N2c3ccccc3NC(=O)C2(C)C)cc1 28.2 µM [inhibitor, partial curve]

Activity change, negative = displacement, inactive:
COc1ccc(-c2c(C)nn(-c3ccccc3)c2N)cc1 -6.05%
N#Cc1c2ccc(OCC(=O)NCc3ccco3)cc2n2ccccc12 52.3%
N#CCOc1ccc2oc(-c3ccco3)cc(=O)c2c1 -4.18%
Cc1ccc(N2C(=O)CC(Nc3ccc(Cl)c(S(=O)(=O)N(C)C)c3)C2=O)c(C)c1 (centres undefined) -18.4%
O=C(Nc1cccnc1)c1sc(Nc2ccccc2)nc1-c1ccccc1 -0.108%
CCCNC(=O)C1CC(c2cccc(F)c2)=NO1 (centres undefined) 7.05%
CCOC(=O)Cn1nc(C)c(NC(=O)COc2ccc(Cl)cc2C)c1C -9.1%
CCOc1ccccc1NC(=O)Cn1ccn(Cc2ccc(C)cc2)c(=O)c1=O -3.43%
CCOC(=O)c1c(NC(=O)c2cccs2)sc(CC)c1-c1cccs1 -0.218%
O=C(NCC1CC1)Nc1ccc(Cl)cc1 -4.34%
CCCS/C(N)=N/N=C/c1ccccc1O -22.4%
COc1ccc(-c2nn(C)c(=O)c3ccccc23)cc1CNS(C)(=O)=O 4.11%
Cc1ccc(Cl)cc1NC(=O)C(=O)NCC(c1cccnc1)N1CCc2ccccc21 (centres undefined) -17.8%
CCC(c1nnnn1Cc1ccco1)N(CCc1ccccc1)Cc1cc2cc(C)ccc2[nH]c1=O (centres undefined) 4.43%
COC(=O)c1ccccc1NC(=O)CSc1nnc(-c2cccnc2)o1 3.28%
N#C/C(=C\c1ccccc1)c1ccccn1 -23.2%
CCCCc1ccc(Nc2nc(CCC)cc(=O)[nH]2)cc1 2.81%
c1cc(-c2sc(-c3ccncc3)c(-c3ccncc3)c2-c2ccncc2)ccn1 2.26%
COC(=O)[C@H](Cc1ccccc1)NC(=O)[C@@H](C)CO 27.8% [at 15.3 µM]
Cn1c(=O)n(CC(N)=O)c(=O)c2c1nc1n2CCCN1Cc1ccccc1 -0.379%
Cc1cccc2c1-c1sc(C(=O)N(C)c3cccc(C(F)(F)F)c3)cc1CO2 0.882%
Cc1ccccc1-n1nc(CO)c(C(=O)NCc2cccs2)n1 -1.17%
